Laboratory results taken from the supplement of paper PMC10126150.
Values marked as one replicate rest on one cluster of the flow cell; about a third of the high ones do not repeat.
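Note: ATP exposure 15 min at 22 °C before imaging.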

What follows are sequences tested on ATP (assay: switch fluorescence ratio, 500 uM ATP over buffer (Cy3 cluster intensity, sum of 5 cycles each) (fold (ratio)); higher = stronger signal-on switching upon ATP binding; sequences stand for … in TCGTCGGCAGCGTCAGATGTGTATAAGAGACAGTTTTTTTTTTTTTTTTTTTTTTTTT…TC). Conditions: aptamer strand: ATP DNA aptamer (quencher-CACCTGGGGGAGTATTGCGGAGGAAGG + anchor), 100 nM annealed; ATP concentration: 500 uM; one replicate.
In short: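 Switching-strand clusters labelled with Cy3 on a modified Illumina MiSeq flow-cell were annealed to 100 nM quencher-labelled ATP aptamer, imaged in selection buffer, and re-imaged after 15 min with 500 uM ATP at 22 °C. This was done over five cycles with NaOH stripping and re-annealing in between. The fluorescence ratio is summed target-cycle over summed buffer-cycle Cy3 intensity per cluster, averaged per switch-domain sequence, excluding clusters outside 100-1000 RFU.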
For GCCTATAGCA, the switch fluorescence ratio was 0.959.
GCCTATCCAT showed a switch fluorescence ratio of 0.974.
Work on GCCTCAGTCT yielded a switch fluorescence ratio of 0.99.
For GCCTCATAG, the switch fluorescence ratio was 1.02.
In the case of GCCTCGGCCT, the switch fluorescence ratio is reported as 0.993.
In the case of GCCTCGGTT, the switch fluorescence ratio is reported as 1.
Work on GCCTGAATTG yielded a switch fluorescence ratio of 0.996.
With GCCTGAGGCT the switch fluorescence ratio was 0.977.
GCCTGCTTTG gave a switch fluorescence ratio of 1.03.
With GCCTGGACTC the switch fluorescence ratio was 1.02.
Sequence GCCTGGAGAG has a switch fluorescence ratio of 0.968.
Sequence GCCTGGATGG has a switch fluorescence ratio of 0.996.
Sequence GCCTGGGCCA has a switch fluorescence ratio of 0.984.
Work on GCCTGGTCGT yielded a switch fluorescence ratio of 0.989.
In the case of GCCTGTAGTC, the switch fluorescence ratio is reported as 0.999.
Sequence GCCTGTTGGC has a switch fluorescence ratio of 0.97.
GCCTTCAGGT showed a switch fluorescence ratio of 0.951.
In the case of GCCTTGACCG, the switch fluorescence ratio is reported as 1.06.
GCCTTGATGA showed a switch fluorescence ratio of 0.943.
GCCTTGCAGG gave a switch fluorescence ratio of 0.967.
In the case of GCCTTTAAAA, the switch fluorescence ratio is reported as 1.01.
GCCTTTAAGT showed a switch fluorescence ratio of 0.976.
With GCCTTTGTGC the switch fluorescence ratio was 0.952.
GCGAAAAAA showed a switch fluorescence ratio of 1.07.
GCGAAACTAG showed a switch fluorescence ratio of 0.939.
GCGACAAGGG gave a switch fluorescence ratio of 1.02.
Work on GCGACATGCT yielded a switch fluorescence ratio of 1.01.
GCGACCCTGT was tested, and the switch fluorescence ratio was 1.07.
Sequence GCGACGGCTT has a switch fluorescence ratio of 1.05.
For GCGACTACCG, the switch fluorescence ratio was 0.959.
With GCGACTAGAT the switch fluorescence ratio was 1.02.
Work on GCGAGAATG yielded a switch fluorescence ratio of 0.984.
GCGAGCCTGC gave a switch fluorescence ratio of 0.986.
GCGAGGATG gave a switch fluorescence ratio of 1.01.
In the case of GCGAGTCGCA, the switch fluorescence ratio is reported as 1.
Work on GCGAGTCTGT yielded a switch fluorescence ratio of 1.04.
In the case of GCGAGTTTGG, the switch fluorescence ratio is reported as 1.02.
In the case of GCGATAGTGA, the switch fluorescence ratio is reported as 1.
For GCGATCGCGT, the switch fluorescence ratio was 1.01.
GCGATCTTCT gave a switch fluorescence ratio of 1.04.
In the case of GCGATTTGCG, the switch fluorescence ratio is reported as 0.988.
For GCGCAAAAAC, the switch fluorescence ratio was 1.28.
In the case of GCGCAACCAC, the switch fluorescence ratio is reported as 2.28.
GCGCAAGAA was tested, and the switch fluorescence ratio was 1.2.
In the case of GCGCAGTTAG, the switch fluorescence ratio is reported as 1.08.
GCGCATTAAT gave a switch fluorescence ratio of 1.03.
GCGCCACGTT showed a switch fluorescence ratio of 0.965.
For GCGCCAGCCT, the switch fluorescence ratio was 0.998.
GCGCCAGTAG showed a switch fluorescence ratio of 1.03.
GCGCCATGTT showed a switch fluorescence ratio of 0.996.
GCGCCTATCG was tested, and the switch fluorescence ratio was 0.966.
With GCGCCTTCGA the switch fluorescence ratio was 1.06.
For GCGCCTTTTG, the switch fluorescence ratio was 0.966.
GCGCGAATGC gave a switch fluorescence ratio of 2.11.
Sequence GCGCGAGGCA has a switch fluorescence ratio of 1.06.
Sequence GCGCGAGGCC has a switch fluorescence ratio of 0.988.
GCGCGGTCAG gave a switch fluorescence ratio of 1.01.
For GCGCGTCAAT, the switch fluorescence ratio was 1.03.
GCGCTAATTG was tested, and the switch fluorescence ratio was 1.06.
In the case of GCGCTATATT, the switch fluorescence ratio is reported as 1.32.
Work on GCGCTATGTC yielded a switch fluorescence ratio of 1.32.
Sequence GCGCTCTACT has a switch fluorescence ratio of 1.72.
For GCGCTGATAT, the switch fluorescence ratio was 1.21.
Work on GCGCTGGGGA yielded a switch fluorescence ratio of 1.04.
GCGCTTATGC showed a switch fluorescence ratio of 1.2.
GCGCTTGCAA gave a switch fluorescence ratio of 1.03.
GCGCTTGGTT showed a switch fluorescence ratio of 1.02.
For GCGCTTTGTC, the switch fluorescence ratio was 1.01.
GCGGAAGAGT showed a switch fluorescence ratio of 0.921.
GCGGAATGAG gave a switch fluorescence ratio of 1.03.
For GCGGACCAAC, the switch fluorescence ratio was 1.14.
For GCGGACGTGT, the switch fluorescence ratio was 1.05.
GCGGAGGTGC was tested, and the switch fluorescence ratio was 0.984.
Work on GCGGAGGTT yielded a switch fluorescence ratio of 1.01.
GCGGATAGGA showed a switch fluorescence ratio of 0.979.
Sequence GCGGATCCAG has a switch fluorescence ratio of 1.
With GCGGATTTTT the switch fluorescence ratio was 0.968.
GCGGCCCCGG gave a switch fluorescence ratio of 1.17.
In the case of GCGGCGGGAA, the switch fluorescence ratio is reported as 1.02.
GCGGCGGGTG showed a switch fluorescence ratio of 1.08.
GCGGCTAGCG was tested, and the switch fluorescence ratio was 1.02.
With GCGGGACTTT the switch fluorescence ratio was 0.952.
GCGGGATTAA showed a switch fluorescence ratio of 0.99.
In the case of GCGGGATTCC, the switch fluorescence ratio is reported as 1.02.
GCGGGCACAT showed a switch fluorescence ratio of 0.982.
For GCGGGCCAAT, the switch fluorescence ratio was 1.29.
For GCGGGCGCGT, the switch fluorescence ratio was 0.972.
In the case of GCGGGCTTCC, the switch fluorescence ratio is reported as 1.18.
Sequence GCGGGGATCG has a switch fluorescence ratio of 0.968.
With GCGGGGCGTG the switch fluorescence ratio was 1.04.
GCGGGTCTTT gave a switch fluorescence ratio of 1.03.
Work on GCGGGTGATT yielded a switch fluorescence ratio of 1.04.
GCGGGTGCAA was tested, and the switch fluorescence ratio was 1.03.
In the case of GCGGGTTGTT, the switch fluorescence ratio is reported as 1.03.
GCGGTACGGA was tested, and the switch fluorescence ratio was 1.03.
GCGGTAGGAG was tested, and the switch fluorescence ratio was 0.986.
GCGGTGAGCT was tested, and the switch fluorescence ratio was 0.981.
GCGGTGTAGT gave a switch fluorescence ratio of 1.03.
With GCGGTGTGAG the switch fluorescence ratio was 0.982.
In the case of GCGGTTATCG, the switch fluorescence ratio is reported as 1.02.
